Data reported in US6740677B2, “Methods of treating benzodiazepine site (BZD-S) associated syndromes using 2′ hydroxyflavonoids” (priority 2002, dated 2004).

Legend:
[1] = tested on: benzodiazepine site on GABAA receptor; experiment: GABA shift experiment, [3H]-Ro15-1788 competition with/without 10 μM GABA; assay type: binding, rat; settings: for GABA ratio (IC50 ratio without GABA/with GABA), column C: 10^-5 M GABA, rat cerebral cortex membranes; for GABA ratio: IC50 without GABA / IC50 with 10 μM GABA, 1 nM [3H]-Ro15-1788
[2] = tested on: benzodiazepine site; settings: 10^-4 M GABA, rat cerebral cortex membranes; cited from earlier work
[3] = tested on: benzodiazepine site; settings: 10^-5 M muscimol, rat cerebellar membranes; cited from earlier work
[4] = target: benzodiazepine site (BZD-S) of the GABAA receptor
[5] = tested on: benzodiazepine site (BZD-S) of the GABAA receptor; experiment: Radioligand receptor binding, displacement of [3H]-flunitrazepam (Example 1); settings: for pIC50: read-out: Inhibition of 3H-Flunitrazepam IC50, 1 nM [3H]-flunitrazepam, rat whole brain synaptosomal membrane

SMILES	GABA ratio (IC50 ratio without GABA/with GABA), column C [1]	GABA ratio (IC50 ratio without GABA/with GABA), column A [2]	GABA ratio (IC50 ratio without GABA/with GABA), column B [3]	pKi [4]	pIC50 [5]	other results
CCCCOC(=O)c1cc2c(cn1)[nH]c1ccccc12 [BCCB, reference compound]	0.5	–	–	–	–	–
COC(=O)c1cc2c(cn1)[nH]c1ccccc12 [BCCM]	0.7	0.7	0.9	–	–	–
CCCOC(=O)c1cc2c(cn1)[nH]c1ccccc12 [BCCP]	–	1.0	1.1	–	–	–
COc1c(O)cc2oc(-c3ccccc3O)cc(=O)c2c1O [Compound 2, 5,7,2′-trihydroxy-6-methoxyflavone]	–	–	–	8.12	8.02	GABA ratio [1]: 1.27; fold difference in binding affinity ([5]; Compound 2 vs Compound 7 (K1)): 168 fold
O=c1cc(-c2ccccc2O)oc2ccc(O)cc12 [Compound 3, 6,2′-dihydroxyflavone]	–	–	–	7.89	7.77	GABA ratio [1]: 0.89; fold difference in binding affinities ([5]; K1 0.013 μM vs Compound 12): over 900 fold
O=c1cc(-c2ccccc2O)oc2ccc3ccccc3c12 [Compound 4, 2′-hydroxy-β-naphthoflavone]	–	–	–	7.36	7.26	GABA ratio [1]: 1.06
O=c1cc(-c2ccccc2O)oc2ccccc12 [Compound 5, 2′-hydroxyflavone]	–	–	–	6.72 and 6.82	6.72	GABA ratio [1]: 1.17; fold difference in binding affinities ([5]; Compound 5 vs Compound 9): > 30 fold; fold difference in binding affinities ([5]; Compound 5 vs Compound 12 (K1)): 80 fold
COc1c(O)c(OC)c2oc(-c3ccccc3)cc(=O)c2c1O [Compound 6, 5,7-dihydroxy-6,8-dimethoxyflavone]	–	–	–	6.54	6.44	–
COc1c(O)cc(O)c2c(=O)cc(-c3ccccc3)oc12 [Compound 8, 5,7-dihydroxy-8-methoxyflavone]	–	–	–	5.66	5.56	–
O=c1cc(-c2ccccc2)oc2ccccc12 [Compound 9, flavone]	–	–	–	5.26	5.16	–
COc1ccccc1-c1cc(=O)c2cc(O)ccc2o1 [Compound 11, 6-hydroxy-2′-methoxyflavone]	–	–	–	4.94	4.84	–
CCc1c(C(=O)OC)ncc2[nH]c3cc(OC)c(OC)cc3c12 [DMCM]	–	0.7	0.5	–	–	–
CNC(=O)c1cc2c(cn1)[nH]c1ccccc12 [FG 7142]	0.9	0.7	0.9	–	–	–
CN1C(=O)CN=C(c2ccccc2F)c2cc([N+](=O)[O-])ccc21 [Flunitrazepam]	1.9	3.3	2.5	–	–	–
CCOC(=O)c1ncn2c1CN(C)C(=O)c1cc(F)ccc1-2 [Ro15-1788]	0.9	1.1	1.2	–	–	–
CCOC(=O)c1ncn2c1CN(C)C(=O)c1cc(N=[N+]=[N-])ccc1-2 [Ro15-4513, reference compound]	0.9	–	–	–	–	–
CN1C(=O)CN=C(c2ccccc2F)c2cc([N+](=O)[O-])ccc21 [[^3H]-flunitrazepam, reference compound]	–	–	–	–	–	pKd ([5]; read-out: Kd, dissociation constant of [3H]-flunitrazepam from the high affinity binding site, saturation assay): 8.41

pIC50, pKd, pKi: −log10 of the molar value. Where “and” joins values, the source holds several entries; their conditions need not be identical. Equal entries are not always repeated.
